Laboratory results: PubChem BioAssay AID743279 (National Center for Advancing Translational Sciences (NCATS), 2014)
Hit rate of the full screen: of about 360,000 compounds, about 17,000 (4.7%) were called active. This list was built around the results that the source calls inconclusive (neither active nor inactive); the mix of calls is not that of the screen. Rule as the data show it: active = activity change below about -50%; inconclusive = mostly about -30% to -49%; inactive = weaker than that.

Test: qHTS for Inhibitors of Inflammasome Signaling: IL-1-beta AlphaLISA Primary Screen
Conditions: THP-1 LPS/ATP IL-1B secretion, 16 h; at 57.5 µM, hits give low values
Procedure, shortened: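 Secreted IL-1B measured by AlphaLISA bead assay after 16 h compound exposure of THP-1 cells; compounds (final up to 57.5 uM) added 1 h before LPS (250 ng/mL) and ATP (1.25 mM) stimulation; lower signal means less secretion.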
% is scaled to controls: 0 for no effect and ±100 for the full control effect.

Row | Compound | activity change
1 | Cc1ccc(-c2nc(CS(=O)(=O)CC(=O)NCCN3CCCC3)c(C)o2)cc1 | inactive: -6.94%
2 | CCc1ccccc1N(CC(=O)NC(C)c1ccccc1)S(C)(=O)=O (stereo not given) | inactive: -9.92%
3 | CC(C#N)Sc1ccc(S(=O)(=O)N(C)C2CCCCC2)cn1 (stereo not given) | inactive: 16%
4 | Cn1c(N)c(C(=O)NCc2ccccc2Cl)sc1=S | inconclusive: -30.8%
5 | Cn1cccc1C(=O)NNC(=O)COc1ccccc1Cl | inconclusive: -45.5%
6 | COc1ccc(CN2C(=O)C(CC(=O)NC(c3ccccc3)c3ccccc3)CC(C(=O)N(C(C)C)C(C)C)=C2C)cc1 (stereo not given) | inconclusive: -33.9%
7 | O=C(Nc1cccc(Cl)c1)Nc1ccc2c(c1)OCO2 | inconclusive: -30.8%
8 | CSc1ccccc1NC(=O)C1CCN(S(C)(=O)=O)CC1 | inactive: -12.3%
9 | O=C(OCC(=O)N1CCN(C(=O)c2ccco2)CC1)c1ccccc1NCCO | inactive: -10.7%
10 | Fc1ccc(CNCc2ccc3c(c2)OCO3)cc1 | inconclusive: -41.2%
11 | CC(C)(Oc1ccc(Cl)cc1)C(=O)NC1CCN(Cc2ccccc2)CC1 | inconclusive: -43.5%
12 | CC(=NO)c1cc(Br)c2cccc3c2c1CC3 | inactive: -8.65%
13 | CC(C)C[C@@H]1NC(=O)N(CCN2CCOCC2)C1=O | inactive: 5.83%
14 | CCN(CC)C(=O)C1=C(C)N(Cc2ccc(C(C)(C)C)cc2)C(=O)C(CC(=O)NCc2ccco2)C1 (stereo not given) | inconclusive: -40.6%
15 | O=C(CSc1ccc(Br)cc1)Nc1cccc(S(=O)(=O)N2CCOCC2)c1 | inconclusive: -49.5%
16 | O=C(/C=C/c1ccc(OCCCF)cc1)N1CCN(Cc2ccccc2)CC1 | active: -52.6%
17 | COc1ccc(/C=N/Nc2cc(C)nc3c(C)cccc23)cc1 | inconclusive: -43.9%
18 | Cc1ccc(C)c(OCc2cc(C(=O)NC(c3ccccn3)C(F)(F)F)no2)c1 (stereo not given) | inconclusive: -36.2%
19 | Cc1ccc(NC(=O)Nc2ccc3c(c2)N(C)C(=O)CS3)cc1C | inconclusive: -33.1%
20 | CN(C(=O)c1ccc(NC(=O)Cc2cccc([N+](=O)[O-])c2)cc1)C1CCCC1 | inconclusive: -46.9%
21 | O=C(Nc1ccc(N2CCOCC2)c2nonc12)C1CCCC1 | inactive: -20.6%
22 | Cc1cc(NC(=O)c2c(C)noc2C)no1 | inactive: 20%
23 | O=C1CC(c2ccccc2)CC2=C1C=Nc1ccccc1N2 (stereo not given) | active: -97.5%
24 | Cc1[nH]c2ccccc2c1/C=N/Nc1nc2ccccc2[nH]1 | active: -105%
25 | CC1CCN(S(=O)(=O)c2ccc3c(c2)N(CC(=O)NCCCN2C(C)CCCC2C)C(=O)CO3)CC1 (stereo not given) | inconclusive: -40.1%
